Data published in the supplement of paper PMC12217912.
The other results are listed elsewhere or left out. Sequences were assembled here from the parent chain. Values near 0.05 are background.

B1: TEV protease; numbered along this chain (parent)
chain: MGESLFKGPRDYNPISSSICHLTNESDGHTTSLYGIGFGPFIITNKHLFRRNNGTLVVQSLHGVFKVKDTTTLQQHLVDGRDMIIIRMPKDFPPFPQKLKFREPQREERICLVTTNFQTKSMSSMVSDTSCTFPSGDGIFWKHWIQTKDGQCGSPLVSTRDGFIVGIHSASNFTNTNNYFTSVPKNFMELLTNQEAQQWVSGWRLNADSVLWGGHKVFMVKPEEPFQPVKEATQL

Variants of: B1
Assay: raw area under fraction-flipped curve 0-4 h after induction (AUC4h, not background-subtracted), DNA-recorder readout of cleavage of the substrate (dimensionless); higher = more cleavage of the substrate by the protease variant
Settings: temperature: 34 °C; time window: 0-4 h after rhamnose induction
Description: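 In vivo DNA recorder in E. coli TOP10(DE3) ΔrhaA at 34 °C. Each TEVp single-site mutant (parent TEVp 0) is paired with a single-site variant of the 7-mer TEVs (canonical ENLYFQ|S). The substrate sits between flexible linkers in a Bxb1-sfGFP-TEVs-SsrA fusion, so cleavage stabilises Bxb1 and speeds flipping of a recombination array, read by NGS. The value is the raw area under the fraction-flipped curve over 0-4 h after rhamnose induction (AUC4h), with ≥20 reads per time point. It is not background-subtracted; inactive controls average about 0.047.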
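Further: Bxb1 expression induced with 0.2% (w/v) L-rhamnose at OD600 near 0.5, cultures sampled hourly, flipped fraction per protease–substrate barcode pair counted by paired-end Illumina sequencing.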

| Variant | area with substrate ENAYFQS | area with substrate ENCYFQS | area with substrate ENDYFQS | area with substrate ENEYFQS | area with substrate ENFYFQS | area with substrate ENGYFQS | area with substrate ENHYFQS | area with substrate ENIYFQS | area with substrate ENKYFQS | area with substrate ENNYFQS | area with substrate ENPYFQS | area with substrate ENQYFQS | area with substrate ENRYFQS | area with substrate ENSYFQS | area with substrate ENTYFQS | area with substrate ENVYFQS | area with substrate ENWYFQS | area with substrate ENYYFQS | area with substrate ENMYFQS |
| --- | --- | --- | --- | --- | --- | --- | --- | --- | --- | --- | --- | --- | --- | --- | --- | --- | --- | --- | --- |
| MGESLFKGPRDYNPISSSICHLTNESDGHTTSLYGIGFGPFIITNKHLERRNNGTLVVQSLHGVFKVKDTTTLQQHLVDGRDMIIIRMPKDFPPFPQKLKFREPQREERICLVTTNFQTKSMSSMVSDTSCTFPSGDGIFWKHWIQTKDGQCGSPLVSTRDGFIVGIHSASNFTNTNNYFTSVPKNFMELLTNQEAQQWVSGWRLNADSVLWGGHKVFMVKPEEPFQPVKEATQL [F49E] | 0.058 | 0.0435 | 0.0555 | 0.0527 | 0.0548 | 0.0507 | 0.0521 | 0.0568 | 0.0559 | 0.0584 | 0.0481 | 0.0512 | 0.0557 | 0.06 | 0.0565 | 0.0354 | 0 | 0.0567 | – |
| MGESLFKGPRDYNPISSSICHLTNESDGHTTSLYGIGFGPFIMTNKHLFRRNNGTLVVQSLHGVFKVKDTTTLQQHLVDGRDMIIIRMPKDFPPFPQKLKFREPQREERICLVTTNFQTKSMSSMVSDTSCTFPSGDGIFWKHWIQTKDGQCGSPLVSTRDGFIVGIHSASNFTNTNNYFTSVPKNFMELLTNQEAQQWVSGWRLNADSVLWGGHKVFMVKPEEPFQPVKEATQL [I43M] | 0.0528 | – | 0.061 | 0.0497 | 0.058 | 0.0614 | 0.0609 | 0.081 | 0.0693 | 0.0594 | 0.0598 | 0.0543 | 0.0506 | 0.0611 | 0.0296 | 0.0649 | 0.0528 | 0.0629 | 0.0672 |
| MGESLFKGPRDYNPISSSICHLTNESDGHTHSLYGIGFGPFIITNKHLFRRNNGTLVVQSLHGVFKVKDTTTLQQHLVDGRDMIIIRMPKDFPPFPQKLKFREPQREERICLVTTNFQTKSMSSMVSDTSCTFPSGDGIFWKHWIQTKDGQCGSPLVSTRDGFIVGIHSASNFTNTNNYFTSVPKNFMELLTNQEAQQWVSGWRLNADSVLWGGHKVFMVKPEEPFQPVKEATQL [T31H] | 0.0589 | 0.0649 | 0.062 | 0.0599 | 0.0476 | 0.0441 | 0.0657 | 0.0862 | – | 0.0734 | – | 0.0617 | – | 0.0584 | 0.0579 | 0.0621 | – | – | – |
| MGESLFKGPRDYNPISSSICHLTNESDGHTLSLYGIGFGPFIITNKHLFRRNNGTLVVQSLHGVFKVKDTTTLQQHLVDGRDMIIIRMPKDFPPFPQKLKFREPQREERICLVTTNFQTKSMSSMVSDTSCTFPSGDGIFWKHWIQTKDGQCGSPLVSTRDGFIVGIHSASNFTNTNNYFTSVPKNFMELLTNQEAQQWVSGWRLNADSVLWGGHKVFMVKPEEPFQPVKEATQL [T31L] | 0.0768 | – | 0.0614 | 0.0659 | 0.0451 | 0.0637 | 0.0631 | – | 0.0551 | – | 0.0622 | 0.0523 | 0.0684 | 0.0707 | 0.0673 | – | – | – | – |
